Assay results from article PMC4336329 (PLoS ONE, 2015).
Screen size: about 310,000 compounds; about 14,000 (4.5%) showed an effect of 50% or more. The effect is printed as a negative number. Some of the results follow.

Biological target: human ether-à-go-go-related gene (hERG) potassium channel (human, UniProt Q12809)
Assay: primary screen, population patch clamp on CHO cells stably expressing hERG
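Also: peak tail current of the secondary pulse compared with the same well before compound.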

Sequence of human ether-à-go-go-related gene (hERG) potassium channel (Q12809 whole entry, looked up): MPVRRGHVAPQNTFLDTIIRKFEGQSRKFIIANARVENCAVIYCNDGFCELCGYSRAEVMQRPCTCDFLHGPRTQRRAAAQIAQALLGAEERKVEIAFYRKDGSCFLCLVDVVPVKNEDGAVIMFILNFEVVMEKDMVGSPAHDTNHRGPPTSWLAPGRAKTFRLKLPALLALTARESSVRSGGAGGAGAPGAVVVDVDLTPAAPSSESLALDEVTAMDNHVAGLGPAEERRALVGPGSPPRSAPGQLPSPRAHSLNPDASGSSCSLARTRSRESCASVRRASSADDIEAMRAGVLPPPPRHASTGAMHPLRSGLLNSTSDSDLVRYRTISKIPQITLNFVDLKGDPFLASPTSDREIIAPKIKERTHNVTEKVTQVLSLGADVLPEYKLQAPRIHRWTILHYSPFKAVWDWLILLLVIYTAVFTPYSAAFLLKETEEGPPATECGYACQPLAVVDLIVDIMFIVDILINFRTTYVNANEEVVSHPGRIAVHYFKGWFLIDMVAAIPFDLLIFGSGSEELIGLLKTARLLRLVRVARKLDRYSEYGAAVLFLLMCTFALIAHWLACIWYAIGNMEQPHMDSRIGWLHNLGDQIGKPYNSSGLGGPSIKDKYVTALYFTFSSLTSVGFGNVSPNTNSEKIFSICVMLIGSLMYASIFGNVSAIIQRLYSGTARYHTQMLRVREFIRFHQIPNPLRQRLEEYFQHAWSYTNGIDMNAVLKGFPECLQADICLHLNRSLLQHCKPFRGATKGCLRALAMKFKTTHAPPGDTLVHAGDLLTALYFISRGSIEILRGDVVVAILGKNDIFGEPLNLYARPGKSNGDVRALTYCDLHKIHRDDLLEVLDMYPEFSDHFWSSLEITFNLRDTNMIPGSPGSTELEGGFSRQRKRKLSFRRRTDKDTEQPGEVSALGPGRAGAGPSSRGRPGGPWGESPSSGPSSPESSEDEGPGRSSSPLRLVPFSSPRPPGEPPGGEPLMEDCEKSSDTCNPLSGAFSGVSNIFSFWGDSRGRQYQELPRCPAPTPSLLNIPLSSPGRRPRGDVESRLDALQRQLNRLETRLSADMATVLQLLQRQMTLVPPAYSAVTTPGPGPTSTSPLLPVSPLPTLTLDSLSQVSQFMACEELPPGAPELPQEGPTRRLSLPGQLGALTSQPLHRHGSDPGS

Row | SMILES | hERG current change (%, negative = inhibition) at 10uM [%]
1 | Cc1ccc(S(=O)(=O)NC2c3cccc4cccc(c34)C2Sc2n[nH]c(N)n2)cc1 (stereo not drawn) | -9.13
2 | Cc1ccc(Cn2ccnc2SCC(=O)NC2CCCC2)cc1 | -3.74
3 | CCCCCc1ccc(-c2ccc(C(=O)O)cc2)nc1 | -5.62
4 | CC(=O)c1sc(NC(=O)c2ccc(Cn3cc(Br)cn3)o2)nc1C | -17.8
5 | CC(C)(C)c1ccc(S(=O)(=O)N2CCN(C(=O)C3CCC3)CC2)cc1 | -3.35
6 | COc1ccccc1NC(=O)C1CCCN(S(=O)(=O)c2ccc3c(c2)CC(C)N3C(C)=O)C1 (stereo not drawn) | 11.1
7 | COc1ccc(-n2nnnc2CNC(=O)C(=O)c2c(C)[nH]c3ccccc23)cc1 | -0.965
8 | O=S(=O)(c1ccccc1)c1nnn2c1nc(NC1CCN(Cc3ccccc3)CC1)c1ccccc12 | -8.78
9 | COC(=O)C1=C(C(=O)OC)SC(=C2C(=S)C(C)(C)N(C(=O)C(C)C)c3ccccc32)S1 | 1.27
10 | O=C1c2ccc([N+](=O)[O-])cc2C(=O)N1Cc1cccnc1 | 19.6
11 | CCOC(=O)c1nccnc1C(=O)Nc1ccc(C(F)(F)F)cc1 | -3.36
12 | O=C(NCCc1ccccc1)C(=O)NCC(c1ccco1)N1CCOCC1 (stereo not drawn) | 23.8
13 | Cc1ccc(Cl)cc1NC(=O)CCS(=O)(=O)c1cccc2nonc12 | 12.9
14 | Cc1noc(NS(=O)(=O)c2ccc(NC(=O)CS(=O)(=O)c3ccccc3)cc2)c1C | 4.63
15 | O=C(NNc1c2ccccc2nc2ccccc12)c1ccc(Cl)cc1 | 15.6
16 | COc1ccc(S(=O)(=O)N2CCC(C(=O)NCc3ccncc3)CC2)cc1OC | 26.1
17 | Brc1ccc(-c2csc(N/N=C/c3ccco3)n2)cc1 | 16.4
18 | Cc1c(C(=O)OCC(=O)Nc2ccc(S(N)(=O)=O)cc2)oc2c1ccc1ccccc12 | 21
19 | COc1ccc(C(=O)N/N=C/c2ccc(OC)c(CN3CCCc4ccccc43)c2)cc1 | -11.9
20 | Cc1ccc(/C(=C\CN2CCCC2)c2ccccn2)cc1.Cl | -55.4
21 | CCOC(=O)c1cc(C#N)c(NCc2ccccc2)nc1C | 4.13
22 | CCOC(=O)N1CCC(NC(=O)c2ccc3c(c2)sc2nc(-c4ccc(OC)cc4)cn23)CC1 | 11.8
23 | O=C(Cn1c(-c2ccccc2)noc1=O)Nc1ccc(S(=O)(=O)N2CCOCC2)cc1 | -10.1
24 | Cc1ccc(C(=O)NNC(=O)c2ccncc2)cc1[N+](=O)[O-] | 8.46
25 | Cc1ccc(N(Cc2cc3ccccc3[nH]c2=O)C(=O)c2ccco2)c(C)c1 | 6.68
26 | Cc1ccc(S(=O)(=O)N2CCN(C(=O)c3ccccn3)CC2)c(C)c1 | 20.1
27 | CCOc1ccccc1N1CCN(c2nc3ccccc3nc2C(C#N)C(=O)OC(C)C)CC1 (stereo not drawn) | 23.4

Row | SMILES | hERG current change (%, negative = inhibition) at 10uM [%]
28 | N#Cc1ccccc1/C=N/Nc1nc(-c2ccccc2)c2cc(Br)ccc2n1 | -67.4
29 | CSCC[C@H](N)C(=O)N1CCC(C(=O)N[C@H](C(=O)NCc2ccccc2F)C(C)C)CC1 | 1.56
30 | O=c1c2ccccc2ncn1-c1ccc([N+](=O)[O-])c(C(F)(F)F)c1 | -3.74
31 | Cc1ccc(C)c(-c2ccc(=O)n(Cc3ccc(F)cc3Cl)n2)c1 | -1.58
32 | Cc1nc(N)sc1C(=O)NN | -9.12
33 | COC(=O)C1=C(c2cccc(OC)c2OC)C[C@@H]2CC[C@H]1N2C(=O)N1CCCC1 | -2.67
34 | Cn1cc(/C=C2\SC(=S)N(NC(=O)c3ccccc3Cl)C2=O)c2ccccc21 | 1.95
35 | CCC(C(=O)Nc1cc(C(=O)Nc2cc(C)ccn2)ccc1Cl)c1ccccc1 (stereo not drawn) | -5.73
36 | Cc1oc(-c2ccc(Cl)cc2)nc1CS(=O)CC(=O)NC(C)c1ccccc1 (stereo not drawn) | -45.8
37 | NNC(=O)c1ccc(-c2cccc([N+](=O)[O-])c2)o1 | 23.4
38 | COC(=O)c1c(NC(=O)COC(=O)Cn2cnc3ccccc32)sc(C)c1C | -0.491
39 | Cc1ccccc1OCCOC(=O)c1nc2nccc(C)n2n1 | -14.1
40 | CCOc1ccc(CCNC(=O)c2ccc(NC3=NC4CS(=O)(=O)CC4S3)cc2)cc1 (stereo not drawn) | 10.9
41 | CCC1(C)Cc2ccccc2-c2nc(NCCO)[nH]c(=O)c21 (stereo not drawn) | 5.78
42 | Cc1nn(C)c(C)c1S(=O)(=O)N(CC(=O)NCc1cccs1)c1ccc(C(C)C)cc1 | 9.79
43 | COc1ccccc1/C=C/C(=O)OC(C)CN1CCOCC1.Cl (stereo not drawn) | -4.32
44 | COc1ccc2c(c1)cc1n2CCN=C1NN.Cl.O | 2.89
45 | c1ccc2[nH]c(SCc3cscn3)nc2c1 | 2.76
46 | O=C(CSc1ccc(-c2cccnc2)nn1)Nc1ccc(F)cc1F | -33.1
47 | CCOC(=O)C1CCCc2c1[nH]c1c(C(N)=O)cccc21 (stereo not drawn) | -14.7
48 | CCOc1ccc(S(=O)(=O)N2CCOCC2)cc1NC(=O)CSCc1ccc(C)cc1 | -53.2
49 | COc1ccc(CCc2nnc(NS(C)(=O)=O)s2)cc1 | 8.96
50 | CC(C)C(=O)N1CCN(c2ccc(NC(=O)c3cccs3)cc2)CC1 | 16.6
51 | CN(CC(=O)Nc1cccc(F)c1)C(=O)CCNC(=O)c1ccc(Br)cc1 | -20.1
52 | CCOC(=O)C1=C(O)/C(=C/c2ccc(CNC(=O)C(=O)Nc3ccc(C)cc3)o2)N=C1C | 8.92
53 | O=C(Cn1cc(C(F)(F)F)ccc1=O)NC(c1ccccc1)c1ccccc1 | 5.28
54 | Cc1ccc(S(=O)(=O)CC(=O)Nc2nnc(C(C)(C)C)s2)cc1 | 2.09
